“And” between values parts separate entries of the source, which are not always exact repeats. Identical values can stand only once. Hit rate of the full screen: of about 150,000 compounds, about 540 (0.36%) showed an effect of 50% or more. The list shows a part of the results.
Tested on: Plasmodium falciparum
Test: Primary screen in NF54 nanoGlo assay, in single point, at 2uM, 72h; a lower Z score goes with more inhibition
Format: functional, Erythrocyte
Details: timepoint 72 hour

| SMILES | % Inhibition | Z score | % Inhibition (2 µM) |
| --- | --- | --- | --- |
| COC(=O)[C@H]1CCc2nnc(COc3ccc(C(C)(C)C)cc3)n2C1 | -20% | 3.74 |  |
| Cc1ccc(CCNC(=O)[C@@H]2CC[C@H](NS(=O)(=O)N(C)C)C2)s1 | -3% | 0.5 |  |
| CCc1c(C)sc2c1CCN(C(=O)Nc1ccc(C)cc1)[C@@H]2c1ccccc1 | -16% | 1.59 |  |
| Cn1cc(C(=O)NC[C@](O)(c2ccoc2)c2ccco2)nn1 | -16% | 2.81 |  |
| CCOc1ccc2nnc(CNC(=O)N[C@@H](C)CC)n2n1 | -17% | 3.36 |  |
| COc1ccc(Nc2nc(C)c3ncn(-c4ccc(OC)cc4)c3n2)cc1 | -9% | 1.45 |  |
| COC(=O)[C@H](NCC(=O)N1CCCC1)c1ccccc1C | -12% | 1.54 |  |
| O=C(NCC#CCOc1ccc2c(c1)OCO2)c1cccc(-n2cnnn2)c1 | -11% | 1.45 |  |
| Cc1nsc(N[C@H]2CCc3ccccc32)n1 | -1% | 0.13 |  |
| CC[C@H](C)CS(=O)(=O)NC1CCN(c2nccn(CC)c2=O)CC1 | -23% | 2.1 |  |
| COCCn1cc(NC(=O)CC2CCN(CC(F)F)CC2)cn1 | -9% | 1.68 |  |
| CCn1cc(C(=O)NCC23CCCN2CCC3)c(C(C)C)n1 | -22% | 2.39 |  |
| CCn1cnnc1C1CCN(c2ncnc3cccc(C)c23)CC1 | -3% | 0.49 |  |
| C[C@H](NC(=O)C1CCCC1)c1nnc2n1CCCCC2 | -5% | 0.72 |  |
| CN1CCN(c2cc(N3C[C@@H]4[C@H]5CC[C@H](CC5)[C@@H]4C3)nc(N)n2)CC1 | 6% | -1.04 |  |
| CCN(CC1CCOCC1)C(=O)Nc1ccc(C(=O)N2CCCC2)cc1C | -8% | 1.05 |  |
| C#C[C@@H](NC(=O)NCCCc1c(C)nn(C)c1C)C(C)C | 0% | 0.04 |  |
| O=C(NC[C@H]1CCCO1)N1CCN(c2cc3c(nn2)CCCC3)CC1 | -20% | 3.34 |  |
| COCCN(CC(=O)Nc1nc(-c2ccccc2)cn1-c1ccc(C)c(F)c1)C(=O)COC | -10% | 1.34 |  |
| Cc1cccnc1[C@@H](NC(=O)CCCn1cncn1)C1CC1 | -3% | 0.55 |  |
| c1cc(-c2nc(-c3ccsc3)no2)n(C2CCCC2)n1 | -8% | 0.79 |  |
| COc1cc(-c2noc(NCc3ccc4c(c3)OCO4)n2)sn1 | -9% | 1.21 |  |

| SMILES | % Inhibition | Z score | % Inhibition (2 µM) |
| --- | --- | --- | --- |
| CC(=O)N1CC[C@H](CN(C)Cc2ccc(OC(F)F)c(Cl)c2)C1 | -10% | 1.87 |  |
| COc1cccc(Oc2nccn3c(=O)n(CC(=O)Nc4ccc5c(c4)OCCO5)nc23)c1 | -8% | 0.76 |  |
| Cc1noc(C)c1NC(=O)[C@H]1CC(=O)N(c2ccccc2)C1 | 2% | -0.27 |  |
| CCOc1ccnc(N(C)CCc2ccccn2)n1 | -3% | 0.49 |  |
| CN1CCc2ccc(NC(=O)NC[C@](C)(O)c3ccccc3Cl)cc21 | -2% | 0.44 |  |
| Cc1ocnc1CNC(=O)[C@H]1CC(=O)N(c2ccc(F)cc2F)C1 | -5% | 0.77 |  |
| C#Cc1cccc(N(C)C(=O)c2cc(S(=O)(=O)N(C)C)oc2C)c1 | 0% | 0.01 |  |
| Cc1nc(-c2ccc(N3CCN(C(=O)NC4CCCCC4)CC3)cc2)no1 | 4% | -0.72 |  |
| CC(NC1CCCC1(C)C)C(=O)N(C)C(C)C (centres undefined) | -1% | 0.09 |  |
| O=C1C2C(C(=O)N1c1ccc(Br)cc1)C2(c1ccccc1)c1ccccc1 (centres undefined) | 1% | -0.14 |  |
| CC(C(=O)N1CCN(C2CCNC(=O)CC2)CC1)C(C)(C)C (centres undefined) | 4% | -0.39 |  |
| CCC(c1cccs1)N1C(=O)[C@H]2CN(C)C[C@H]2C1=O (some centres undefined) | -12% | 1.44 |  |
| Cc1ccncc1CC(=O)Nc1ccccc1NCC1CCCCC1 | -11% | 1.79 |  |
| Cc1ncnc(N2CCC([C@H](C)N3CCN(C)CC3)CC2)c1C | -6% | 0.53 |  |
| CN(C)C(=O)[C@H](NC(=O)Nc1ccc2c(c1)OCCCO2)c1ccccc1 | 5% | -0.55 |  |
| CNC(=O)[C@@H](NC(=O)c1ccco1)C(C)C | -5% | 0.83 |  |
| Cc1nc(CNC(=O)Nc2cccc3c2OC(C)(C)C3)sc1C | -9% | 1.14 |  |
| COc1ccc(Oc2cc3c(cc2NS(=O)(=O)c2cc(OC)ccc2OC)n(C)c(=O)n3C)cc1 | -2% | 0.27 |  |
| O=C(Nc1ncc(-c2ccccc2F)s1)N1CCC(O)CC1 | -3% | 0.33 |  |
| CCOc1cccc(OCC)c2c(C)nc(C)c1-2 |  |  | 1% and -13% |
| COc1ccc(C[C@H](N)C(=O)Nc2ccc(N(C)C)c(Cl)c2)cc1 | -5% | 1.04 |  |
| O=C(N[C@@H]1CCCC[C@H]1OC(F)F)c1cnn2ncccc12 | -8% | 1.27 |  |

| SMILES | % Inhibition | Z score | % Inhibition (2 µM) |
| --- | --- | --- | --- |
| CN1c2ccccc2C(=O)NC12CCN(C(=O)Nc1cccc(Cl)c1)CC2 | -9% | 1.13 |  |
| COC(=O)C1=C(C(=O)OC)SC(=C2C(=S)C(C)(C)N(C(=O)COc3ccc4ccccc4c3)c3ccccc32)S1 | 33% | -0.65 |  |
| CCN(Cc1cnn(C)c1)Cc1cccc(OC)c1OC[C@@H](O)CN1CCOCC1 | -15% | 1.78 |  |
| O=C(Nc1ccc(F)cc1Cl)c1cccc(S(=O)(=O)NCc2cccs2)c1 | 4% | -0.54 |  |
| COc1cc(OC)nc(N2Cc3cnc(CC(C)C)nc3C2)n1 | 1% | -0.15 |  |
| CCOCC(C)(C)NCC(=O)N1CCC(C(=O)N2CCCCCC2)CC1 | -4% | 0.5 |  |
| Cc1csc(NC(=O)c2cc(O)ncn2)n1 | -11% | 1.96 |  |
| Cc1ccc(-c2cc(N)n(CC3CCCCC3)n2)cc1 | -12% | 1.6 |  |
| CCc1nsc(N2CCC[C@H]2c2ncc(Br)cn2)n1 | 4% | -0.71 |  |
| CCN=C(N)N1CCN(c2ncc(Br)c(OC)n2)CC1 | -13% | 1.12 |  |
| CCN1CCC[C@@]2(CCN(c3ncc(C(=O)O)cc3Cl)C2)C1=O | -11% | 1.86 |  |
| Cc1cccc(-c2noc(-c3ccc4c(=O)n(Cc5ccccc5F)c(=O)[nH]c4c3)n2)c1 | 14% | -1.6 |  |
| CC(C)[C@H](NC(=O)c1ccccc1F)C(=O)NC1CC(N2CCCCC2)C1 (some centres undefined) | -6% | 0.73 |  |
| Cc1cc(C)nc(N2CCC[C@H](CCC(=O)N3CCN(c4ccccn4)CC3)C2)n1 | -8% | 1.06 |  |
| Cc1cccn2c(CN3CCC(O)CC3)c(C(=O)N3CCCCC3)nc12 | 1% | -0.25 |  |
| CC(C)(CC(F)F)C(=O)N1CCCCO1 | 0% | -0.03 |  |
| O=C(O)[C@@]1(Cc2ccccc2F)CCCN(c2cnccn2)C1 | -11% | 1.91 |  |
| CC1CN(CCc2ccncc2)CCN1CC(O)c1ccccc1 (centres undefined) | -13% | 1.08 |  |
| CC(C)c1n[nH]c2c1CN(C(=O)c1c[nH]nc1-n1cnnn1)CC2 | -6% | 1.23 |  |
| O=C1C[C@H](NC(=O)C(c2ccccc2)c2ccccc2)CN1 | -8% | 1.43 |  |
| Cc1nnc(C(=O)NCCC2=CCCC2)s1 | -12% | 1.56 |  |
| N#CC1(c2ccccc2)c2ccccc2C(=O)c2ccccc21 | 34% | -4.35 |  |

| SMILES | % Inhibition | Z score | % Inhibition (2 µM) |
| --- | --- | --- | --- |
| Cc1nc(C)c(-c2ccc(C(=O)N[C@H]3CCCNC3=O)cc2)[nH]1 | 12% | -1.52 |  |
| Cc1nccc(NC(=O)N(Cc2ccoc2)C2CC2)n1 | -3% | 0.6 |  |
| Cc1ccc([C@@H]2Cn3nc(C(=O)Nc4ccc(C(N)=O)cc4)cc3CO2)cc1 | -7% | 0.88 |  |
| CCN1C[C@@H](NC(=O)N(Cc2ccsc2)C2CCCCC2)CC1=O | -16% | 1.59 |  |
| O=C(Nc1ccncc1)N(Cc1ccccc1)C1CCCCC1 | 3% | -0.36 |  |
| COc1ccc(CCNC(=O)c2cnn3c4c(cnc23)C[C@@H](C)CC4)cc1OC | 61% | -4.54 |  |
| Cn1ccnc1C(=O)c1cccc(NC(=O)CCn2cnnn2)c1 | -10% | 1.57 |  |
| O=C(C1CC=CCC1)N1CCCC1c1cccc(F)c1 (centres undefined) | -15% | 1.48 |  |
| O=C(NCCc1nnc2ccccn12)NCC1CCCC1 | -16% | 3.08 |  |
| COc1ccc(-c2noc3nc(C4CC4)cc(C(=O)Nc4cc(C)n(Cc5ccccc5F)n4)c23)cc1 | 26% | -2.95 |  |
| COc1ccc([C@H](C)NC(=O)N2CC3(C2)CS(=O)(=O)C3)cc1 | -13% | 2.78 |  |
| CCC1CCC(CNC(=O)[C@H](C)NC(N)=O)CC1 (some centres undefined) | -8% | 1.44 |  |
| CS(=O)(=O)CCc1ccc(N[C@H]2CCc3ccccc3C2)cc1 | -9% | 1.37 |  |
| O=C(Cc1ccc(F)cc1)Nc1c(C(=O)N2CCC(N3CCCCC3)CC2)oc2ccccc12 | -1% | 0.23 |  |
| CNC(=O)[C@H]1CN(C(=O)Nc2ccc(C)cc2Cl)CC12CCCC2 | 4% | -0.53 |  |
| COc1ccccc1CN(C1CC1)S(=O)(=O)CC1(C#N)CCCC1 | 4% | -0.45 |  |
| CCCc1n[nH]cc1C(=O)N1CCC2(CC1)CC(=O)N(Cc1ccccc1)C2 | 0% | 0.03 |  |
| CCn1cc(CN(C)C(=O)c2cc(C(C)C)cc(C(C)C)c2O)cn1 | -14% | 1.92 |  |
| Cc1ccc(S(N)(=O)=O)c(C(=O)NC[C@H](C)N2CCCCC2=O)c1 | 30% | -3.82 |  |

Reference: ChEMBL document CHEMBL4888484, “Replenishing the malaria drug discovery pipeline: Screening and hit evaluation of the MMV Hit Generation Library 1 (HGL1) against asexual blood stage Plasmodium falciparum ,using a nano luciferase reporter read-out” (2022)
